Experimental data taken from the supplement of paper PMC8728848.
The sample as a whole holds a higher share of the strongest signals than the screen did.

Columns and labels:
Assay in all cases: glycan array binding signal (z-score within array); higher = stronger binding
Conditions in all cases: glycan notation: IUPAC condensed, linker removed
[1] = biological target: Fuc(a1-2)Gal(b1-3)GlcNAc(b1-3)GalNAc
Procedure, shortened: (§1)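 Columns mapping to the same glycan were averaged after glycan names were converted to IUPAC-condensed notation. The data come from 3228 arrays in the Consortium for Functional Glycomics database, limited to those with an available protein sequence. Binding is reported as a within-array Z-score averaged across arrays of one protein sequence and across linkers.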

[2] = biological target: Fuc(a1-2)Gal(b1-4)GlcNAc(b1-2)[Fuc(a1-2)Gal(b1-4)GlcNAc(b1-4)]Man(a1-3)[Fuc(a1-2)Gal(b1-4)GlcNAc(b1-2)Man(a1-6)]Man(b1-4)GlcNAc(b1-4)GlcNAc
Procedure, shortened: as §1

[3] = biological target: Fuc(a1-2)[Gal(a1-3)]Gal(b1-3)GlcNAc
Procedure, shortened: as §1

[4] = biological target: Fuc(a1-2)[GalNAc(a1-3)]Gal(b1-3)GlcNAc(b1-2)Man(a1-3)[Fuc(a1-2)[GalNAc(a1-3)]Gal(b1-3)GlcNAc(b1-2)Man(a1-6)]Man(b1-4)GlcNAc(b1-4)GlcNAc
Procedure, shortened: as §1

[5] = biological target: Fuc(a1-2)[GalNAc(a1-3)]Gal(b1-4)GlcNAc(b1-2)Man
Procedure, shortened: as §1

[6] = biological target: Fuc(a1-2)[GalNAc(a1-3)]Gal(b1-4)GlcNAc(b1-2)Man(a1-3)[Fuc(a1-2)[GalNAc(a1-3)]Gal(b1-4)GlcNAc(b1-2)Man(a1-6)]Man(b1-4)GlcNAc(b1-4)GlcNAc
Procedure, shortened: as §1

[7] = biological target: Fuc(a1-2)[GalNAc(a1-3)]Gal(b1-4)GlcNAc(b1-3)Gal(b1-4)GlcNAc
Procedure, shortened: as §1

[8] = biological target: Fuc(a1-2)[GalNAc(a1-3)]Gal(b1-4)GlcNAc(b1-3)GalNAc
Procedure, shortened: as §1

[9] = biological target: Fuc(a1-2)[GalNAc(a1-3)]Gal(b1-4)GlcNAc(b1-6)GalNAc
Procedure, shortened: as §1

[10] = biological target: Fuc(a1-2)[GalNAc(b1-3)]Gal
Procedure, shortened: as §1

Fuc(a1-3)GlcNAc = biological target: Fuc(a1-3)GlcNAc
Procedure, shortened: as §1

[11] = biological target: Fuc(a1-3)[Gal3S(b1-4)]GlcNAc
Procedure, shortened: as §1

[12] = biological target: Gal(a1-3)Gal(b1-4)GlcNAc(b1-2)Man
Procedure, shortened: as §1

[13] = biological target: Gal(a1-3)Gal(b1-4)GlcNAc(b1-6)GalNAc
Procedure, shortened: as §1

[14] = biological target: Gal(a1-4)Gal(b1-4)GlcNAc(b1-3)Gal(b1-4)Glc
Procedure, shortened: as §1

Gal(b1-2)Gal = biological target: Gal(b1-2)Gal
Procedure, shortened: as §1

[15] = biological target: Gal(b1-3)GlcNAc(a1-6)Gal(b1-4)GlcNAc
Procedure, shortened: as §1

[16] = biological target: Gal(b1-3)[Fuc(a1-4)]GlcNAc(b1-2)Man
Procedure, shortened: as §1

[17] = biological target: Gal(b1-3)[Fuc(a1-4)]GlcNAc(b1-3)Gal(b1-3)[Fuc(a1-4)]GlcNAc
Procedure, shortened: as §1

[18] = biological target: Gal(b1-4)GlcNAc(b1-2)[Gal(b1-4)GlcNAc(b1-4)]Man(a1-3)[Gal(b1-4)GlcNAc(b1-2)Man(a1-6)]Man(b1-4)GlcNAc(b1-4)GlcNAc
Procedure, shortened: as §1

[19] = biological target: Gal(b1-4)GlcNAc(b1-2)[Gal(b1-4)GlcNAc(b1-6)]Man(a1-6)[GlcNAc(b1-4)][Gal(b1-4)GlcNAc(b1-2)Man(a1-3)]Man(b1-4)GlcNAc(b1-4)GlcNAc
Procedure, shortened: as §1

[20] = biological target: Gal(b1-4)GlcNAc(b1-3)Gal(b1-3)GalNAc
Procedure, shortened: as §1

[21] = biological target: Gal(b1-4)GlcNAc(b1-3)Gal(b1-4)GlcNAc(b1-3)Gal(b1-4)GlcNAc(b1-3)Gal(b1-4)GlcNAc(b1-3)Gal(b1-4)GlcNAc(b1-2)Man(a1-3)[Gal(b1-4)GlcNAc(b1-3)Gal(b1-4)GlcNAc(b1-3)Gal(b1-4)GlcNAc(b1-3)Gal(b1-4)GlcNAc(b1-3)Gal(b1-4)GlcNAc(b1-2)Man(a1-6)]Man(b1-4)GlcNAc(b1-4)GlcNAc
Procedure, shortened: as §1

Gal4S6S(b1-4)GlcNAc = biological target: Gal4S6S(b1-4)GlcNAc
Procedure, shortened: as §1

[22] = biological target: GalNAc(a1-3)GalNAc(b1-3)Gal(a1-4)Gal(b1-4)Glc
Procedure, shortened: as §1

GalNAc(b1-4)Gal(b1-4)Glc = biological target: GalNAc(b1-4)Gal(b1-4)Glc
Procedure, shortened: as §1

[23] = biological target: GalNAc(b1-4)GlcNAc(b1-2)Man
Procedure, shortened: as §1

[24] = biological target: GalNAc(b1-4)GlcNAc(b1-3)GalNAc(b1-4)GlcNAc
Procedure, shortened: as §1

GalNAc(b1-4)GlcNAc6S = biological target: GalNAc(b1-4)GlcNAc6S
Procedure, shortened: as §1

GalNAc6S(b1-4)GlcNAc = biological target: GalNAc6S(b1-4)GlcNAc
Procedure, shortened: as §1

[25] = biological target: GlcA3S(b1-3)Gal(b1-4)GlcNAc(b1-3)Gal(b1-4)Glc
Procedure, shortened: as §1

[26] = biological target: GlcNAc(a1-4)Gal(b1-4)GlcNAc(b1-3)Gal(b1-4)[Fuc(a1-3)]GlcNAc(b1-3)Gal(b1-4)[Fuc(a1-3)]GlcNAc
Procedure, shortened: as §1

[27] = biological target: GlcNAc(b1-2)[GlcNAc(b1-6)]Man(a1-6)[GlcNAc(b1-2)Man(a1-3)]Man(b1-4)GlcNAc(b1-4)[Fuc(a1-6)]GlcNAc
Procedure, shortened: as §1

[28] = biological target: GlcNAc(b1-3)Gal(b1-4)GlcNAc
Procedure, shortened: as §1

[29] = biological target: GlcNAc(b1-3)Gal(b1-4)GlcNAc(b1-3)Gal(b1-4)GlcNAc(b1-3)Gal(b1-4)GlcNAc(b1-3)Gal(b1-4)GlcNAc(b1-2)Man(a1-3)[GlcNAc(b1-3)Gal(b1-4)GlcNAc(b1-3)Gal(b1-4)GlcNAc(b1-3)Gal(b1-4)GlcNAc(b1-3)Gal(b1-4)GlcNAc(b1-2)Man(a1-6)]Man(b1-4)GlcNAc(b1-4)[Fuc(a1-6)]GlcNAc
Procedure, shortened: as §1

[30] = biological target: GlcNAc(b1-3)Gal(b1-4)GlcNAc(b1-6)[GlcNAc(b1-3)Gal(b1-3)]GalNAc
Procedure, shortened: as §1

GlcNAc(b1-6)GalNAc = biological target: GlcNAc(b1-6)GalNAc
Procedure, shortened: as §1

[31] = biological target: Man(a1-2)Man(a1-3)[Man(a1-2)Man(a1-6)]Man(a1-6)[Man(a1-2)Man(a1-2)Man(a1-3)]Man(b1-4)GlcNAc(b1-4)GlcNAc
Procedure, shortened: as §1

Man(b1-4)GlcNAc = biological target: Man(b1-4)GlcNAc
Procedure, shortened: as §1

[32] = biological target: Neu5Ac(a2-3)Gal(b1-3)GalNAc6S
Procedure, shortened: as §1

[33] = biological target: Neu5Ac(a2-3)Gal(b1-4)[Fuc(a1-3)]GlcNAc(b1-3)Gal(b1-4)GlcNAc
Procedure, shortened: as §1

Neu5Ac(a2-3)GalNAc = biological target: Neu5Ac(a2-3)GalNAc
Procedure, shortened: as §1

[34] = biological target: Neu5Ac(a2-6)Gal(b1-4)GlcNAc(b1-3)Gal(b1-3)GlcNAc
Procedure, shortened: as §1

Neu5Ac(a2-6)GalNAc = biological target: Neu5Ac(a2-6)GalNAc
Procedure, shortened: as §1

[35] = biological target: Neu5Ac(a2-8)Neu5Ac(a2-3)[GalNAc(b1-4)]Gal(b1-4)Glc
Procedure, shortened: as §1

[36] = biological target: Neu5Ac(a2-8)Neu5Ac(a2-8)Neu5Ac
Procedure, shortened: as §1

[37] = biological target: Neu5Ac9Ac(a2-3)Gal(b1-4)GlcNAc
Procedure, shortened: as §1

B1: mASGPR (Macaca mulatta) (protein)
chain: GASSQNSKFQRDLVTLRTDFSNFTSNTVAEIQALTSQGSSVEEMIASLKAEVEVIKQEQQAVHSEMLLRVQRLMQDLNKLTCQVATLKNNASTERTCCPVNWVEHQDSCYWFSRSGMPWAEAEKHCQLENAHLVVINSREEQNFVQEHLSFAYTWMGLSDREGAWKWVDGTDYETGFQNWKPGQPDDWQGHGLGGGEDCAHFHPDGRWNDDVCQRPYYWVCEAGLTQASQESHT[in this place human IgG1 Fc]
glycan array binding signal (z-score) [1]: -0.506
glycan array binding signal (z-score) [2]: 0.141
glycan array binding signal (z-score) [3]: 0.419
glycan array binding signal (z-score) [4]: 2.52
glycan array binding signal (z-score) [5]: 2.1
glycan array binding signal (z-score) [6]: 2.53
glycan array binding signal (z-score) [7]: 1.98
glycan array binding signal (z-score) [8]: 1.49
glycan array binding signal (z-score) [9]: 2.48
glycan array binding signal (z-score) [10]: 2.51
glycan array binding signal (z-score) (Fuc(a1-3)GlcNAc): -0.584
glycan array binding signal (z-score) [11]: -0.254
glycan array binding signal (z-score) [12]: -0.493
glycan array binding signal (z-score) [13]: 2.73
glycan array binding signal (z-score) [14]: -0.635
glycan array binding signal (z-score) (Gal(b1-2)Gal): 0.251
glycan array binding signal (z-score) [15]: 0.154
glycan array binding signal (z-score) [16]: 1.53
glycan array binding signal (z-score) [17]: -0.325
glycan array binding signal (z-score) [18]: -0.794
glycan array binding signal (z-score) [19]: -0.263
glycan array binding signal (z-score) [20]: -0.77
glycan array binding signal (z-score) [21]: 0.03
glycan array binding signal (z-score) (Gal4S6S(b1-4)GlcNAc): -0.57
glycan array binding signal (z-score) [22]: 1.89
glycan array binding signal (z-score) (GalNAc(b1-4)Gal(b1-4)Glc): 0.433
glycan array binding signal (z-score) [23]: 2.44
glycan array binding signal (z-score) [24]: 1.97
glycan array binding signal (z-score) (GalNAc(b1-4)GlcNAc6S): 2.72
glycan array binding signal (z-score) (GalNAc6S(b1-4)GlcNAc): 2.46
glycan array binding signal (z-score) [25]: -0.765
glycan array binding signal (z-score) [26]: 0.739
glycan array binding signal (z-score) [27]: 0.032
glycan array binding signal (z-score) [28]: -0.753
glycan array binding signal (z-score) [29]: 0.506
glycan array binding signal (z-score) [30]: -0.956
glycan array binding signal (z-score) (GlcNAc(b1-6)GalNAc): 2.45
glycan array binding signal (z-score) [31]: -0.129
glycan array binding signal (z-score) (Man(b1-4)GlcNAc): -0.77
glycan array binding signal (z-score) [32]: 0.268
glycan array binding signal (z-score) [33]: -0.521
glycan array binding signal (z-score) (Neu5Ac(a2-3)GalNAc): -0.492
glycan array binding signal (z-score) [34]: -0.776
glycan array binding signal (z-score) (Neu5Ac(a2-6)GalNAc): 2.81
glycan array binding signal (z-score) [35]: 2.42
glycan array binding signal (z-score) [36]: -0.851
glycan array binding signal (z-score) [37]: -0.867
